# From the supplement of paper PMC8728848
# The other results are listed elsewhere or left out.
# B1: OGAN (protein)
# chain: MVQKESQATLEERESELSSNPAASAGASLEPPAAPAPGEDNPAGAGGAAVAGAAGGARRFLCGVVEGFYGRPWVMEQRKELFRRLQKWELNTYLYAPKDDYKHRMFWREMYSVEEAEQLMTLISAAREYEIEFIYAISPGLDITFSNPKEVSTLKRKLDQVSQFGCRSFALLFNDIDHNMCAADKEVFSSFAHAQVSITNEIYQYLGEPETFLFCPTEYCGTFCYPNVSQSPYLRTVGEKLLPGIEVLWTGPKVVSKEIPVESIEEVSKIIKRAPVIWDNIHANDYDQKRLFLGPYKGRSTELIPRLKGVLTNPNCEFEANYVAIHTLATWYKSNMNGVRKDVVMTDSEDSTVSIQIKLENEGSDEDIETDVLYSPQMALKLALTEWLQEFGVPHQY
# How the values were obtained:
# Assay in all cases: glycan array binding signal (z-score within array); higher = stronger binding
# Conditions in all cases: glycan notation: IUPAC condensed, linker removed
# Fuc(a1-2)Gal = target: Fuc(a1-2)Gal
# Procedure, shortened: (§1)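 Negative Z-scores can be read as non-binding. The Z-score is calculated within each array and then averaged across arrays of one protein sequence at different concentrations or buffers and across linkers. Arrays, 3228 in all, were curated from the Consortium for Functional Glycomics database and kept only where the protein sequence was available.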
# Fuc(a1-2)Gal(b1-3)GalNAc = target: Fuc(a1-2)Gal(b1-3)GalNAc
# Procedure, shortened: as §1
# [1] = target: Fuc(a1-2)Gal(b1-3)GalNAc(a1-3)[Fuc(a1-2)]Gal(b1-4)Glc
# Procedure, shortened: as §1
# [2] = target: Fuc(a1-2)Gal(b1-3)GalNAc(a1-3)[Fuc(a1-2)]Gal(b1-4)GlcNAc
# Procedure, shortened: as §1
# [3] = target: Fuc(a1-2)Gal(b1-3)GalNAc(b1-3)Gal
# Procedure, shortened: as §1
# [4] = target: Fuc(a1-2)Gal(b1-3)GalNAc(b1-3)Gal(a1-4)Gal(b1-4)Glc
# Procedure, shortened: as §1
# [5] = target: Fuc(a1-2)Gal(b1-3)GalNAc(b1-4)[Neu5Ac(a2-3)]Gal(b1-4)Glc
# Procedure, shortened: as §1
# Fuc(a1-2)Gal(b1-3)GlcNAc = target: Fuc(a1-2)Gal(b1-3)GlcNAc
# Procedure, shortened: as §1
# [6] = target: Fuc(a1-2)Gal(b1-3)GlcNAc(b1-2)Man(a1-3)[Fuc(a1-2)Gal(b1-3)GlcNAc(b1-2)Man(a1-6)]Man(b1-4)GlcNAc(b1-4)GlcNAc
# Procedure, shortened: as §1
# [7] = target: Fuc(a1-2)Gal(b1-3)GlcNAc(b1-2)Man(a1-3)[Fuc(a1-2)Gal(b1-3)GlcNAc(b1-2)Man(a1-6)]Man(b1-4)GlcNAc(b1-4)[Fuc(a1-6)]GlcNAc
# Procedure, shortened: as §1
# [8] = target: Fuc(a1-2)Gal(b1-3)GlcNAc(b1-3)Gal(b1-4)Glc
# Procedure, shortened: as §1
# [9] = target: Fuc(a1-2)Gal(b1-3)GlcNAc(b1-3)GalNAc
# Procedure, shortened: as §1
# [10] = target: Fuc(a1-2)Gal(b1-3)GlcNAc(b1-3)[Fuc(a1-2)Gal(b1-3)GlcNAc(b1-6)]GalNAc
# Procedure, shortened: as §1
# [11] = target: Fuc(a1-2)Gal(b1-3)GlcNAc(b1-3)[Gal(b1-4)GlcNAc(b1-6)]Gal(b1-4)Glc
# Procedure, shortened: as §1
# [12] = target: Fuc(a1-2)Gal(b1-3)GlcNAc(b1-3)[Neu5Ac(a2-6)Gal(b1-4)GlcNAc(b1-6)]Gal(b1-4)Glc
# Procedure, shortened: as §1
# [13] = target: Fuc(a1-2)Gal(b1-3)GlcNAc6S
# Procedure, shortened: as §1
# [14] = target: Fuc(a1-2)Gal(b1-3)[Fuc(a1-4)]GlcNAc
# Procedure, shortened: as §1
# [15] = target: Fuc(a1-2)Gal(b1-3)[Fuc(a1-4)]GlcNAc(b1-2)Man(a1-3)[Fuc(a1-2)Gal(b1-3)[Fuc(a1-4)]GlcNAc(b1-2)Man(a1-3)]Man(b1-4)GlcNAc(b1-4)GlcNAc
# Procedure, shortened: as §1
# [16] = target: Fuc(a1-2)Gal(b1-3)[Fuc(a1-4)]GlcNAc(b1-2)Man(a1-3)[Fuc(a1-2)Gal(b1-3)[Fuc(a1-4)]GlcNAc(b1-2)Man(a1-6)]Man(b1-4)GlcNAc(b1-4)[Fuc(a1-6)]GlcNAc(b1-4)[Fuc(a1-6)]GlcNAc
# Procedure, shortened: as §1
# [17] = target: Fuc(a1-2)Gal(b1-3)[Fuc(a1-4)]GlcNAc(b1-3)[Fuc(a1-3)[Gal(b1-4)]GlcNAc(b1-6)]Gal(b1-4)Glc
# Procedure, shortened: as §1
# [18] = target: Fuc(a1-2)Gal(b1-3)[Fuc(a1-4)]GlcNAc(b1-3)[Gal(b1-4)GlcNAc(b1-6)]Gal(b1-4)Glc
# Procedure, shortened: as §1
# Fuc(a1-2)Gal(b1-4)Glc = target: Fuc(a1-2)Gal(b1-4)Glc
# Procedure, shortened: as §1
# Fuc(a1-2)Gal(b1-4)Glc6S = target: Fuc(a1-2)Gal(b1-4)Glc6S
# Procedure, shortened: as §1
# Fuc(a1-2)Gal(b1-4)GlcNAc = target: Fuc(a1-2)Gal(b1-4)GlcNAc
# Procedure, shortened: as §1
# [19] = target: Fuc(a1-2)Gal(b1-4)GlcNAc(b1-2)Man
# Procedure, shortened: as §1
# [20] = target: Fuc(a1-2)Gal(b1-4)GlcNAc(b1-2)Man(a1-3)[Fuc(a1-2)Gal(b1-4)GlcNAc(b1-2)Man(a1-6)]Man(b1-4)GlcNAc(b1-4)GlcNAc
# Procedure, shortened: as §1
# [21] = target: Fuc(a1-2)Gal(b1-4)GlcNAc(b1-2)Man(a1-3)[Fuc(a1-2)Gal(b1-4)GlcNAc(b1-2)Man(a1-6)]Man(b1-4)GlcNAc(b1-4)[Fuc(a1-6)]GlcNAc
# Procedure, shortened: as §1
# [22] = target: Fuc(a1-2)Gal(b1-4)GlcNAc(b1-2)[Fuc(a1-2)Gal(b1-4)GlcNAc(b1-4)]Man(a1-3)[Fuc(a1-2)Gal(b1-4)GlcNAc(b1-2)Man(a1-6)]Man(b1-4)GlcNAc(b1-4)GlcNAc
# Procedure, shortened: as §1
# [23] = target: Fuc(a1-2)Gal(b1-4)GlcNAc(b1-3)Gal(b1-4)GlcNAc
# Procedure, shortened: as §1
# [24] = target: Fuc(a1-2)Gal(b1-4)GlcNAc(b1-3)Gal(b1-4)GlcNAc(b1-2)Man(a1-3)[Fuc(a1-2)Gal(b1-4)GlcNAc(b1-3)Gal(b1-4)GlcNAc(b1-2)Man(a1-6)]Man(b1-4)GlcNAc(b1-4)GlcNAc
# Procedure, shortened: as §1
binder,measurement,setting,value
B1,glycan array binding signal (z-score),Fuc(a1-2)Gal,-0.012
same,glycan array binding signal (z-score),Fuc(a1-2)Gal(b1-3)GalNAc,-0.067
same,glycan array binding signal (z-score),[1],-0.034
same,glycan array binding signal (z-score),[2],-0.068
same,glycan array binding signal (z-score),[3],-0.03
same,glycan array binding signal (z-score),[4],-0.088
same,glycan array binding signal (z-score),[5],-0.049
same,glycan array binding signal (z-score),Fuc(a1-2)Gal(b1-3)GlcNAc,-0.028
same,glycan array binding signal (z-score),[6],-0.053
same,glycan array binding signal (z-score),[7],0.009
same,glycan array binding signal (z-score),[8],-0.054
same,glycan array binding signal (z-score),[9],-0.052
same,glycan array binding signal (z-score),[10],-0.075
same,glycan array binding signal (z-score),[11],-0.046
same,glycan array binding signal (z-score),[12],-0.068
same,glycan array binding signal (z-score),[13],-0.045
same,glycan array binding signal (z-score),[14],-0.077
same,glycan array binding signal (z-score),[15],0.055
same,glycan array binding signal (z-score),[16],-0.053
same,glycan array binding signal (z-score),[17],-0.073
same,glycan array binding signal (z-score),[18],-0.044
same,glycan array binding signal (z-score),Fuc(a1-2)Gal(b1-4)Glc,-0.067
same,glycan array binding signal (z-score),Fuc(a1-2)Gal(b1-4)Glc6S,-0.026
same,glycan array binding signal (z-score),Fuc(a1-2)Gal(b1-4)GlcNAc,-0.076
same,glycan array binding signal (z-score),[19],-0.042
same,glycan array binding signal (z-score),[20],-0.01
same,glycan array binding signal (z-score),[21],-0.047
same,glycan array binding signal (z-score),[22],-0.036
same,glycan array binding signal (z-score),[23],-0.06
same,glycan array binding signal (z-score),[24],-0.022
